# Experimental data taken from publication PMC4242493.
# The list shows a part of the results. The list includes weakly bound sequences.
# Target: MaxL homodimer (UniProt P61244)
# Assay: universal protein-binding microarray (PBM)
# Conditions: PBS-based mixture, 10 nM His-tagged protein dimer, 2% milk, 200 ng/uL BSA, 50 ng/uL salmon testes DNA, 0.02% TX-100; detection with Alexa 488 anti-His …; high values mean tight binding; most listed sequences are background and not binding sites; double strand, one strand shown
# Sequence of UniProt P61244 (P61244 whole entry): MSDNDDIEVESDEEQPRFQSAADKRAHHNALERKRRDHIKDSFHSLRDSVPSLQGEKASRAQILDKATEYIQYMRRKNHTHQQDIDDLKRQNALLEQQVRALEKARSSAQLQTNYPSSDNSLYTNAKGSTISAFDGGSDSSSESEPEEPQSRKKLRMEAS
row,Sequence,binding signal (normalized occupancy)
1,CACTAGTA,0.077
2,CGCAATTC,0.074
3,AGATGGCA,0.0763
4,AAACACAT,0.0922
5,CAGTCAAA,0.0697
6,ATGGCTAC,0.082
7,AGTAACAT,0.0861
8,ACTGGCCT,0.073
9,AATGAGGA,0.0838
10,AATAACTG,0.0777
11,AGCAGGGA,0.0689
12,GATTAGCA,0.076
13,CGTTAGTA,0.0742
14,ATCAGCAT,0.0875
15,CAGTGCCA,0.0744
16,ATAGAGCA,0.0801
17,CCTGCTTA,0.077
18,GACGGCCA,0.0729
19,CTAAGCGC,0.0684
20,AGCCAAGG,0.0712
21,CGGAGTTA,0.068
22,GCCCTCGC,0.0764
23,GATCTACA,0.0754
24,CCAGAAAG,0.0697
25,CTGGAAAA,0.071

row,Sequence,binding signal (normalized occupancy)
1,CTGGACGA,0.0734
2,TGGATACA,0.0858
3,CACGAAAA,0.077
4,GTCAGCAA,0.0749
5,AGTTGCAA,0.071
6,CACTAGAG,0.0713
7,GTCTTGTA,0.0743
8,CCTCTATA,0.0791
9,GGACAATA,0.0766
10,TCAGTAGA,0.0737
11,CATAACGG,0.0767
12,TCTAGCCA,0.0723
13,GATGAAAC,0.0811
14,GAACCAAA,0.0723
15,CAGAAAAG,0.0707
16,AGCGGTCG,0.0685
17,CTGGAACA,0.0768
18,CAGTAACA,0.0736
19,ATAGGACC,0.0826
20,GCGTCAGA,0.0724
21,ACAGAGCT,0.0706
22,CCCCTGCC,0.0784
23,ACAAACGA,0.0724
24,ACACAACA,0.0738
25,AAATAACG,0.0835

row,Sequence,binding signal (normalized occupancy)
1,ATCCAAGG,0.071
2,ACCAGTAG,0.0677
3,AAGATTCG,0.0704
4,ATGTGAAA,0.0872
5,ACTGCTCC,0.0737
6,AGAAATCG,0.0655
7,AGCGCAGA,0.0694
8,AGAAGTTG,0.0718
9,GATGTACA,0.0827
10,AAGCGATG,0.0743
11,ATCTCTAA,0.072
12,GAACAAGA,0.0749
13,CACTCATG,0.0894
14,ACACTAAG,0.0752
15,CAAATCGA,0.0705
16,CGGTACGA,0.0718
17,ACTCCAAT,0.0703
18,CCTTACCG,0.0666
19,CACCGATG,0.0772
20,ACCCATGC,0.108
21,GATCGTAC,0.0747
22,TCTCGAGA,0.0789
23,CGACGCCC,0.0727
24,CCGCGACA,0.0737
25,GACAAATC,0.0766

row,Sequence,binding signal (normalized occupancy)
1,CAAGGTTC,0.0697
2,CGCGGGCA,0.0751
3,AAGAGCCC,0.0665
4,AACGACGG,0.0774
5,AAACCTCT,0.0716
6,ACTCATAA,0.0817
7,AAACCGCG,0.0734
8,AGCAGGGG,0.0745
9,AGGTTTGA,0.0746
10,AAGAGGTG,0.0728
11,GGGATCGA,0.0761
12,GGTGAGAC,0.0786
13,GACAGGGA,0.072
14,TGGCTAAA,0.074
15,GGAGTAAA,0.0761
16,GGAACGGA,0.0714
17,AAGTTAGC,0.0702
18,CTTTGTCC,0.0747
19,TATAACCA,0.087
20,CGCGCTAG,0.0735
21,CATGTCTC,0.0933
22,CAATCATC,0.0819
23,ACTATAAG,0.0855
24,GAGTTCGC,0.0757
25,GGCTTTCA,0.0757

row,Sequence,binding signal (normalized occupancy)
1,AATTCTCA,0.0751
2,CGTACAAG,0.0756
3,GCCTAACA,0.0769
4,CTAGATTC,0.0781
5,AGGGCGGA,0.0667
6,CTTCTACA,0.0795
7,CGCGCCCC,0.0717
8,ACGTGTGA,0.105
9,CTCCTCTC,0.0689
10,ACCTACTC,0.0755
11,GACCTTAA,0.0751
12,ATTTAAAG,0.071
13,ATCACCGG,0.077
14,AGTACGTG,0.0845
15,GGAGACCA,0.0745
16,TAGGAAGA,0.0708
17,CTAGGTAC,0.0728
18,ATCTTTAC,0.0755
19,CACACTAC,0.0839
20,AGAAACGC,0.0715
21,AAGAAGGT,0.0733
22,GGGTAGCA,0.0763
23,ACGATTTA,0.0733
24,AGTTTCCC,0.0693
25,GCCCCTTA,0.073

row,Sequence,binding signal (normalized occupancy)
1,TCCTGAGA,0.0702
2,AAACTACC,0.0713
3,AATAATTA,0.0764
4,TAATGACA,0.0798
5,CGTCCGAG,0.0695
6,ACCGTTAG,0.0758
7,AAATCAAA,0.0712
8,AGACATAG,0.0766
9,CAGTGCGG,0.0659
10,GATTTTTA,0.0759
11,CACTCTGC,0.0776
12,ACCCATAG,0.0814
13,AGCGCAAG,0.0688
14,AGTAATAC,0.0749
15,AGCTGCCT,0.0684
16,GCGGTTAC,0.0741
17,CAGCTTCC,0.0716
18,GGGGTACA,0.0806
19,GCTGTATA,0.083
20,ACCCAGCC,0.0724
21,CAGATAAC,0.0792
22,GATTCCTA,0.0857
23,GAGGCTGA,0.0724
24,ACATCTAC,0.0773
25,ATATCTGC,0.0757

row,Sequence,binding signal (normalized occupancy)
1,CTTAGATC,0.0787
2,ATCCGGTA,0.0792
3,CCCTGGTA,0.0757
4,CATATTTA,0.0818
5,CTTATATC,0.0785
6,CATTTGAA,0.0763
7,CACACCCC,0.0902
8,CCGCTTAC,0.0724
9,ATGCAACC,0.0825
10,ATTCCTCC,0.0777
11,GAGTTGGA,0.0705
12,CGGTCTAC,0.0717
13,CGTGCGAC,0.0878
14,AAGGACAT,0.0795
15,TTCAAAAA,0.0747
16,ACCCTCGG,0.0677
17,CGTCATGA,0.0825
18,TGCTTCCA,0.0807
19,AGCTCAAG,0.0672
20,CGAACAAC,0.077
21,CTGAACTA,0.0705
22,CATTAATC,0.0784
